According to PMC12136788:
The list shows a part of the results.

T1: UNK ZnF1-3 (human, UniProt Q9C0B0 31-174)
T1 sequence: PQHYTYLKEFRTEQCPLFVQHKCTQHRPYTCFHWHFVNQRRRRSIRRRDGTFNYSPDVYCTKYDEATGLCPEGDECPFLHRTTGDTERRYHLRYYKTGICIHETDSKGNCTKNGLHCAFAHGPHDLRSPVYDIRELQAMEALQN

B1: chr5:134143580:134143581:+_ENSG00000145833_ENST00000354283|hu_hu|FALSE|FALSE (ssRNA)
RNA: GGGAGUUCUACAGUCCGACGAUCUCCUGCUCUUCCAGUCCGCCCUGCUCUGUGUACAUAAUCCUCAUAAUGGUUGGGGCAGCUAUAAUUUACUACAAGAAUCAGAUGUUUCACAUCUAGACCUCGGGCAGCAACAGAGGUAGCCAACAGAGGAUUGAGCAUCA
B2: chrX:140365825:140365826:-_ENSMUSG00000031285_ENSMUST00000033642|mus_mus|FALSE|FALSE (ssRNA)
RNA: GGGAGUUCUACAGUCCGACGAUCAAGUCCAUUCAUCCGUGACCCUCUCAUAUUUCUAGAUGCUUUGUCUCGUUCGUCAAAAUGUCCAAAAUCAAGUUCCAUAUUUUGGUGGAACCACAGCAACCGGUUUUCUGCUGGUUGGGUCAACAGAGGAUUGAGCAUCA
B3: chr2:25130317:25130318:+_ENSMUSG00000026965_ENSMUST00000028341|mus_hu|FALSE|FALSE (ssRNA)
RNA: GGGAGUUCUACAGUCCGACGAUCGGAGUCUGGGAAGUCUCGGACGAUGCUGAAGAGCUCCUCGAUGCGCAGGCUGGCGUAGAUGCGGUAGAAGAACCUUUGCACGUGGCAGCGCCAGCGGCGCAGGGUGUUGCCGGCCUCGGGCAACAGAGGAUUGAGCAUCA
B4: chr7:54825262:54825263:-_ENSG00000132432_ENST00000352861|hu_hu|hu_hu_hu_mus_False|38_48 (ssRNA)
RNA: GGGAGUUCUACAGUCCGACGAUCCUGCCGGCUGGGCUCCACAAACUGCAUUACCUGAUCCAUGUUUGUUGGAUGGCGGAUUGAGAGUGCCAGGGACACGUAGCACUGAGAGAACCGAGCCCAACGGAACCGGAAGCUGGCAACCAACAGAGGAUUGAGCAUCA
B5: 63484750_63485141_14245_CDS_ENSMUSG00000030451_ENSMUST00000076226|mouse|control|control (ssRNA)
RNA: GGGAGUUCUACAGUCCGACGAUCAGAUUCCAUCACUUCCCAGAACCACUGGACCAAGGAUGCAGAAGGCUCAAUCCCUUUAUACGUUGCCACUGACUUUAAAAGAUGCAGUGGGAUAUCUGGGCUCCCACAGACCAUUGUCUCCAACAGAGGAUUGAGCAUCA
B6: 24911301_24911421_527_3pUTR_ENSMUSG00000006476_ENSMUST00000102931|mouse|control|control (ssRNA)
RNA: GGGAGUUCUACAGUCCGACGAUCGUGCCGUUCCCGCUGUCUCCUCCCUUUUACCACUGCUAGCUCAAUGGCUUCAGCUUCAGAGCCAGGUAGCAGGGCGGGCUCUCUAGAGAUGGUGUACACGUGGGGCUGGGGGCCCUCUAUCAACAGAGGAUUGAGCAUCA
B7: chr3:138219032:138219033:+_ENSMUSG00000028156_ENSMUST00000029803|mus_hu|motif|central (ssRNA)
RNA: GGGAGUUCUACAGUCCGACGAUCUGUUACAUGAGGAAAAAAACAAAAGCAAAACAAAUGAAAAACUGAAAUCAGAAUCACGGAUAUUAUCAAGUAGGGAAACAAAUAAAUUAAAAUCUAGCAGCCAUCAGCAAGAGUACAGCACAACAGAGGAUUGAGCAUCA
B8: chr2:232320318:232320319:-_ENSG00000115053_ENST00000322723|hu_hu|hu_hu_hu_mus_True|18_28 (ssRNA)
RNA: GGGAGUUCUACAGUCCGACGAUCACUAUUAAAGUCUACAAAACCAAACCCUUUGGAAGAACCAGUUUCCCGAUCAGUGACUAUUCUUGCACGAACAGAGCCCUCAAAUGACUCCUUUAAUGUCUCUUCAGUGGUAUCCUCAGACAACAGAGGAUUGAGCAUCA
B9: chr4:71802285:71802286:-_ENSMUSG00000008305_ENSMUST00000030095|mus_mus|FALSE|FALSE (ssRNA)
RNA: GGGAGUUCUACAGUCCGACGAUCUCCAGAGGAGGCUGUGGAUGCCGGGCUACCUGAAGCAUCUUUCUUCAGCAGACGGUUUUUGUCAAUUCCGUUUUCCCGGGGUGAGUGUGUGGGGCUUGCAUGUGGAGAAGAAGGGUCCUCCAACAGAGGAUUGAGCAUCA
B10: chr18:6437031:6437032:-_ENSMUSG00000024240_ENSMUST00000028100|mus_mus|motif|central (ssRNA)
RNA: GGGAGUUCUACAGUCCGACGAUCUGCAGUACUGUACAGAUAAUUGCUGUAUUCUUAAUUUACAGAUGUUGAUUUUUUCCGGUUAACAAUAAGAAAAGAAAGGUUGAAGCACGAGAGAUUCGAGAGCUGCGCAGUGCUGCCGAGCAACAGAGGAUUGAGCAUCA
B11: chr17:5392700:5392701:+_ENSG00000167842_ENST00000573759|hu_hu|FALSE|FALSE (ssRNA)
RNA: GGGAGUUCUACAGUCCGACGAUCGUUCUGUAGUUUUCUGGAGUUCUGAACCAGGGAUACUAAACUCUCCCUAAAAUCACUAGUCCCAUGAUCUCUGCCAACAUUAUGAAGCUCAUCAAAGAAAGUCAACGUCUGUUUGAGUUUCAACAGAGGAUUGAGCAUCA
B12: chr14:61442442:61442443:-_ENSG00000126814_ENST00000261249|hu_mus|FALSE|FALSE (ssRNA)
RNA: GGGAGUUCUACAGUCCGACGAUCUGUGGGGAGGAGCUCCGUGCUGCAAGGCUGCCCAUCCAAAAGUGAUCUGAAAACACUGAGAAACUCUAUGGCCUUAGCUGGCAAGUUCAUGACAAUGUGGACAGAGGGUUUAGCUUCAGCCAACAGAGGAUUGAGCAUCA
B13: chr17:87833181:87833182:-_ENSMUSG00000036438_ENSMUST00000040440|perfect_dup|FALSE|FALSE (ssRNA)
RNA: GGGAGUUCUACAGUCCGACGAUCAGGGCUUAGAUAUAUCCAGAGUAAGCCACAUGCAACAUGUUACUUGAUCAAUUUUCUAAAAUAAGGUUUUAGGACAAUGACAGUAAGAUAAGGGAAGAAAACAUGGAGGAAUGAAGUCCUCAACAGAGGAUUGAGCAUCA
B14: chrX:34632047:34632048:-_ENSMUSG00000036572_ENSMUST00000076265|mus_mus|FALSE|FALSE (ssRNA)
RNA: GGGAGUUCUACAGUCCGACGAUCGACUAUUUAAAUCUUUUCCAUCAGCCAUAAUUUGCUCUAUCCUCCGCUCUACUUGUGCUACAAUUACAUGCUCAUUGCUCCUACACUACAGAGUCAACAGUCAACACCAACAAUGCAAAACAACAGAGGAUUGAGCAUCA
B15: chr3:176767854:176767855:-_ENSG00000177565_ENST00000430069|hu_hu|hu_hu_hu_mus_False|88_98 (ssRNA)
RNA: GGGAGUUCUACAGUCCGACGAUCGACAUCCUUGUUACUUGGAACAUCUUGCCCUCCUUCCCGUAUGCAGUGUCUAAGCACGAGCUGCGUAGGGCCACUCGUGCUGUUCUCACUGAGGUUCCAGAUUCUUGCCGUGGAGUCUCCCAACAGAGGAUUGAGCAUCA
B16: chr12:110720550:110720551:+_ENSG00000174437_ENST00000539276|hu_mus|motif|central (ssRNA)
RNA: GGGAGUUCUACAGUCCGACGAUCUUCCUCGAACCAAGCCAAAACGAAAGAUAUACAUGCUGCCAGCAGUAAAAUUCGGACGGGUAAGUCUUCAAACUGCUCAAUCACAAGUUCCAGCAAGGUUUUUCCUUCUUCAGCCGGCAACAACAGAGGAUUGAGCAUCA
B17: chr8:41682716:41682717:-_ENSMUSG00000039431_ENSMUST00000048898|mus_mus|FALSE|FALSE (ssRNA)
RNA: GGGAGUUCUACAGUCCGACGAUCCACAUCGCUGAGCUGCCAAUAAUUAUCAGGGAGGCCCAUUCGCUUGUAUUCUUCACUAAGGUCAACCAGCAACCAGCCCUGCUCCCGUUCUUCCUUAUCCAGCUUGGGGUUGAAGGAAAACAACAGAGGAUUGAGCAUCA
B18: chr2:126475859:126475860:-_ENSMUSG00000027361_ENSMUST00000110424|mus_hu|FALSE|FALSE (ssRNA)
RNA: GGGAGUUCUACAGUCCGACGAUCAGUUUCUGAAGAAUUGGACAAUGGAGCAGAUGCUUCAGCUAAGGCAGCUAAUGUAGCUAAUACUGAUGUAGAAGAGUUUCCAAACUGAACAGCAGAUACACCCGUUUCAUCUGUUGCCUUCAACAGAGGAUUGAGCAUCA
B19: chr16:94664741:94664742:+_ENSMUSG00000040785_ENSMUST00000117648|mus_hu|mus_mus_mus_hu_False|18_88 (ssRNA)
RNA: GGGAGUUCUACAGUCCGACGAUCUGGUACUGAUCUUGGUAGCUGAUACUCAGAAGAAAGGCUGGCCAAGGGUGUAUAUAUGCUGGUGUACUGGGGCAAACCUGGUAACACGUUUAUGUACGCUGGUGGUGUCUGGGUGAUAUCCAACAGAGGAUUGAGCAUCA
B20: 134094604_134094724_126_5pUTR_ENSG00000151502_ENST00000281187|human|control|control (ssRNA)
RNA: GGGAGUUCUACAGUCCGACGAUCCAGUGGGCGGGCGAGGGUCGGCCGUGCAAUGCUGCGGGGGGCAGCCGCACAGAGCCGGGUGUGGGUGGCCUGCGCCUGCCGGGUGGGGUCCAGCGCCGAGCAGCGCUGCGAGCUGCCCAGCAACAGAGGAUUGAGCAUCA
B21: chr1:219384882:219384883:+_ENSG00000143353_ENST00000366928|hu_hu|FALSE|FALSE (ssRNA)
RNA: GGGAGUUCUACAGUCCGACGAUCGGUCACUCCUAGAGAUUUUAACAUUGAGUUUGUCUCUUCUGCCCAAGAAUGAAGAACUAACUCAUCUGCAGUACCAUGACACUGAAAUAAUUCAGGAAGUACACCAUUACUCUUCUGAAGCAACAGAGGAUUGAGCAUCA
B22: chr15:55677894:55677895:-_ENSG00000260916_ENST00000569205|hu_hu|FALSE|FALSE (ssRNA)
RNA: GGGAGUUCUACAGUCCGACGAUCUGAACAUUCUGGGGCGGGCUCACAGCUGUCAGUGGGGGUCACAGAAUUCAACAUUUCUAUAUCUGACCCCUCAUGACUGAUGACAGUCCAACCACAAGAUGAAUCACUGUCACUGGAAUUCAACAGAGGAUUGAGCAUCA

target: T1, UNK ZnF1-3; test: nsRBNS (natural sequence RNA bind-n-seq); RBNS binding buffer (assumed for nsRBNS): 25 mM Tris pH 7.5, 150 mM KCl, 3 mM MgCl2, 0.01% Triton X-100, 500 ug/ml BSA, 20 U/ml SUPERase-In, 4 C; UNK is unkempt and MSI1 is Musashi-1; names of the RNAs are library labels; protein concentration not given here; high values mean tight binding

| Binder | binding signal [enrichment R] |
| --- | --- |
| B1 | 2.12 |
| B2 | 0.581 |
| B3 | 0.414 |
| B4 | 1.16 |
| B5 | 1.05 |
| B6 | 0.738 |
| B7 | 3.15 |
| B8 | 0.81 |
| B9 | 1.24 |
| B10 | 1.39 |
| B11 | 1.02 |
| B12 | 1.76 |
| B13 | 1.76 |
| B14 | 1.37 |
| B15 | 0.517 |
| B16 | 0.928 |
| B17 | 1.43 |
| B18 | 0.909 |
| B19 | 0.979 |
| B20 | 0.394 |
| B21 | 0.977 |
| B22 | 0.541 |
